The text below walks through data of article PMC4336329 (PLoS ONE, 2015).

Out of some 310,000 compounds screened, about 14,000 (4.5%) showed an effect of 50% or more. Effects have a minus sign here. Some of the results follow.
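Also: peak tail current of the secondary pulse compared with the same well before compound.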

For this assay, the target named is human ether-à-go-go-related gene (hERG) potassium channel (human, UniProt Q12809). The assay is described as follows: primary screen, population patch clamp on CHO cells stably expressing hERG.
Sequence of human ether-à-go-go-related gene (hERG) potassium channel (Q12809 whole entry, looked up): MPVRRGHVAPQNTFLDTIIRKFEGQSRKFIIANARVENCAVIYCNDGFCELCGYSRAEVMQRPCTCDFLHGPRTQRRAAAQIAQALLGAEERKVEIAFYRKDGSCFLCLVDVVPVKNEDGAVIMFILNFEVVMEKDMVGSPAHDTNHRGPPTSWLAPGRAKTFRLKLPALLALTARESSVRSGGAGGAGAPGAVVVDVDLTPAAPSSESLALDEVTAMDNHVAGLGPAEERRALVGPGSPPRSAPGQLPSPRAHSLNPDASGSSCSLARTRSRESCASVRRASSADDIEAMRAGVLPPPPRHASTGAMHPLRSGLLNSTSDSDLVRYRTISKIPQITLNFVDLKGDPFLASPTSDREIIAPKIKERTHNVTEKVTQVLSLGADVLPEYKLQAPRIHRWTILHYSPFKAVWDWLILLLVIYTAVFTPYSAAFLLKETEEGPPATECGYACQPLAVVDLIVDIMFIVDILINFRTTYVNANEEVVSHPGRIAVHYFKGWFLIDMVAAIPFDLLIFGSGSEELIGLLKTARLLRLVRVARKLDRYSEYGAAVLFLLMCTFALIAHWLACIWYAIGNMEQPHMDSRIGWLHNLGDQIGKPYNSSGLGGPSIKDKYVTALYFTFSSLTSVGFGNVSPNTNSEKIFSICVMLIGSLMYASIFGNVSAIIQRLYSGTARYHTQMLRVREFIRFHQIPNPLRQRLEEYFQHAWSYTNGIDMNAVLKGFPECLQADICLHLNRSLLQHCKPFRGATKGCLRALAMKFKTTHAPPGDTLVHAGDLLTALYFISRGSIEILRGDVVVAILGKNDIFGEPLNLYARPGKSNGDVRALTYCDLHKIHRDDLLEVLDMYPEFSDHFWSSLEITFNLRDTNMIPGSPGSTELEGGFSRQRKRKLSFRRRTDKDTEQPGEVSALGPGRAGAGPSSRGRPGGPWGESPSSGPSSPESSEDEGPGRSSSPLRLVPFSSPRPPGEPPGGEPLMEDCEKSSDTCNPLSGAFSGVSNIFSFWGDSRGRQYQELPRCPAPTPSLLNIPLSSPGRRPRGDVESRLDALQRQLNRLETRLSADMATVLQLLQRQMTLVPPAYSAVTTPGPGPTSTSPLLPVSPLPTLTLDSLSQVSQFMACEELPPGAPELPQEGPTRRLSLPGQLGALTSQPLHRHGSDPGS
For the compound `CCOC(=O)Cc1cc(=O)[nH]c(Nc2nc3ccccc3o2)n1`, the “hERG current change (%, negative = inhibition) at 10uM” value was -1.53%.

For the compound `Cc1ccc(C)c(S(=O)(=O)Nc2ccccc2C(=O)Nc2cc(C)on2)c1`, the “hERG current change (%, negative = inhibition) at 10uM” value is on record as 1.84%.

For `CCC(C)NC(=O)c1cn(CCOC)c(=O)c2c1c1ccccc1n2C` (centres unmarked), the “hERG current change (%, negative = inhibition) at 10uM” value stood at 20.4%. With `Cc1ccc(NC(NC(=O)c2ccccc2[N+](=O)[O-])C(Cl)(Cl)Cl)cc1` (centres unmarked), the “hERG current change (%, negative = inhibition) at 10uM” value is reported as -5.27%. Turning to `Cc1c(C(c2ccc(F)cc2)c2c(O)c3ccccc3oc2=O)c(=O)n(-c2ccccc2)n1C` (centres unmarked), the “hERG current change (%, negative = inhibition) at 10uM” value is -20.9%. The value for `COc1ccc(-c2csc3ncnc(N4CCN(CCO)CC4)c23)cc1` was -1.12%; that for `Cl.O=C1C2CCCC1C(N1CCCCC1)CC2` (centres unmarked) was 7.25%. The value for `O=C(Nc1ccc(F)cc1F)c1c(C(F)(F)F)ccnc1Oc1cccc(C(F)(F)F)c1` was 9.41%; that for `Cc1cccc(OCC(=O)Nc2ccc(NC(=O)c3ccco3)c(C)c2)c1` was -15.3%.

Consider `Cc1cc(C)c(NC(=O)CSCc2c(C)noc2C)c(C)c1`, for which the “hERG current change (%, negative = inhibition) at 10uM” value is on record as 5.86%. In the case of `CCOC(=O)N1CCN(C(=O)c2ccc(Cl)c(NC(=O)c3cccs3)c2)CC1`, the “hERG current change (%, negative = inhibition) at 10uM” value is given as -54.7%. As to `COc1ccc(N2C(N)=C(C#N)C(c3cccnc3)C3=C2CC(C)(C)CC3=O)cc1` (centres unmarked), the “hERG current change (%, negative = inhibition) at 10uM” value is reported as -17.4%. The figure for `Cc1ccc(-c2nnc(SCc3ccc(C#N)cc3)n2Cc2ccco2)cc1` is -20.6%. The value for `COc1ccccc1/C=C/C(=C1/C(=O)N(c2ccccc2)N=C1C)c1ccc(C)cc1` was 1.24%. The value for `COc1ccc(NC(=O)C2CCCNC2)cc1OCC(C)C` (centres unmarked) was -1.49%; that for `CN(CCCNC(=O)CSc1cc(=O)n(C)c2ccc(Cl)cc12)Cc1ccccc1` was -61.2%; that for `Cc1cc(N2C(=O)C(=O)/C(=C(/O)c3ccccc3)C2c2cccs2)no1` (centres unmarked) was 4.54%.

As to `COC(=O)c1ccc2[nH]c(CO)c(-c3ccccc3)c2c1`, the “hERG current change (%, negative = inhibition) at 10uM” value was found to be 8.99%. The value for `NS(=O)(=O)c1ccc(NC(=O)c2ccc(S(=O)(=O)N3CCc4ccccc43)cc2)cc1` was 10.3%; that for `COc1cnn(-c2ccc(Br)cc2)c(=O)c1SCc1ccccc1` was -65.6%. The figure for `CCCn1c(N)c(C(=O)CSc2nc(N)cc(=O)[nH]2)c(=O)n(C)c1=O` is 11.4%; for `CC1(C)Cc2c(cnn2-c2ccccc2)C(NC(=O)CCc2ccc(=O)[nH]n2)C1` (centres unmarked) it is -0.0884%; for `COc1cc(-c2cc[n+](C)cc2)ccc1O.[Br-]` it is 8.15%. With `Cc1cccc(NC(=O)CSc2ccc3nnc(-c4cccnc4)n3n2)c1`, the “hERG current change (%, negative = inhibition) at 10uM” value is -30.1%. The figure for `COc1ccc(CNC(=O)COC(=O)CN2C(=O)COc3ccccc32)cc1` is -8.6%; for `COCCCn1c(SCc2cc(=O)[nH]c3ccccc23)nnc1-c1ccco1` it is -0.762%. The value for `CCC(c1nnnn1C1CCCC1)N1CCN(c2cccc(OC)c2)CC1.Cl` (centres unmarked) was 1.95%. The value for `CC1CCN(S(=O)(=O)c2ccc3[nH]c(=O)[nH]c3c2)CC1` was -3.58%.

Regarding `Cc1cc(NC(=O)CCC(=O)N(c2cccc(F)c2)C(C(=O)NC2CCCC2)c2ccncc2)no1` (centres unmarked), the “hERG current change (%, negative = inhibition) at 10uM” value was found to be 6.08%. The figure for `Cn1nc(-c2ccccc2)cc1NC(=O)c1ccccc1` is 8.5%; for `Cc1ccccc1[C@]1(C)ON(c2ccccc2C(F)(F)F)C1=O` it is 12.9%; for `O=C(O)CCC(=O)Nc1ccc2c(c1)oc1ccccc12` it is 0.665%.

Turning to `O=C(NCC1CCCO1)c1cccc(Oc2ccc([N+](=O)[O-])cc2Cl)c1` (centres unmarked), the “hERG current change (%, negative = inhibition) at 10uM” value was -72.6%. The figure for `O=C(Cc1ccc(NS(=O)(=O)c2ccc(F)cc2)cc1)NCc1cccnc1` is 13.1%. The value for `CC(C)c1ccc(NC(=O)c2snc3ccc(Cl)cc23)cc1` was 14.4%. For `CCOc1ccc(N(CC(=O)Nc2ccc(C)cc2)S(C)(=O)=O)cc1`, the “hERG current change (%, negative = inhibition) at 10uM” value stood at 9.02%. As for `C=CCn1c(=O)c(C(=O)NCCc2ccc(Cl)cc2)c(O)c2cc(OC)c(OC)cc21`, the “hERG current change (%, negative = inhibition) at 10uM” value is listed as 19%. The value for `CCc1ncc(CN2CCC(C(=O)Nc3cccc(-c4cscn4)c3)CC2)cn1` was -25.1%. Take `N#CC1(NC(=O)CSc2nc3ccccc3s2)CCCCC1`: the “hERG current change (%, negative = inhibition) at 10uM” value is reported as -15.7%. The value for `O=C(Nc1nnc(-c2ccc(Cl)cc2)o1)NC1CCCCC1` was 16.1%; that for `COc1cccc(N2C(=O)NC(=O)/C(=C/c3ccc4c5c(cccc35)CC4)C2=O)c1` was 2.98%; that for `O=C(c1ccc(S(=O)(=O)N2CCOCC2)cc1)N1CCN(c2cccc(Cl)c2)CC1` was -42.4%.

Take `COC(=O)CCCCCN1C(=O)NC(c2ccccc2)C(C(=O)OCc2ccccc2)=C1C` (centres unmarked): the “hERG current change (%, negative = inhibition) at 10uM” value was found to be 6.17%. `O=C(NC(=S)Nc1ccccc1Br)c1cccnc1`: the “hERG current change (%, negative = inhibition) at 10uM” value is on record as 16.4%.

With `CCOc1ccc(Nc2cc(Nc3ccccc3OCC)nc(C=C(C#N)C#N)n2)cc1`, the “hERG current change (%, negative = inhibition) at 10uM” value came to 2.96%. The figure for `Cc1ccc(NC(=O)c2ccc(NS(=O)(=O)c3c(C)noc3C)cc2)cc1C` is -13.3%. The value for `COCC(C)NC(=O)C(C)Oc1ccccc1` (centres unmarked) was 12%. Regarding `CC(C)c1nc2ccccn2c1NC1CCCCC1`, the “hERG current change (%, negative = inhibition) at 10uM” value is on record as -20.9%. The value for `COc1ccccc1Nc1nc(N)nc(CSc2nc(C)cc(C)n2)n1` was -13.5%; that for `CC1CCC(NC(=O)C2(C)CCC(=O)N2Cc2cccnc2)CC1` (centres unmarked) was 7.11%.

`Cc1cc(NC(=O)Cn2cc(C(F)(F)F)cc(Cl)c2=O)no1`: the “hERG current change (%, negative = inhibition) at 10uM” value is recorded as -4.57%. For `CCOC(=O)C1CCN(C(=O)Nc2ccc(NC(=O)C3CCN(C(=O)OCC)CC3)cc2)CC1`, the “hERG current change (%, negative = inhibition) at 10uM” value is -38.9%. The figure for `O=C(N=Nc1c(O)[nH]c2ccc(Cl)cc12)c1cc(-c2cccs2)nc2ccccc12` is 8.57%. The value for `Cc1ccc2c(c1)N(CC(=O)NC1CCC(C)CC1)C(=O)CO2` (centres unmarked) was -10.1%. Take `COC(=O)[C@H](C)NC(=O)Nc1ccccc1F`: the “hERG current change (%, negative = inhibition) at 10uM” value is reported as -2.78%. As to `O=C(Nc1ccc2nn(-c3ccccc3)nc2c1)c1ccco1`, the “hERG current change (%, negative = inhibition) at 10uM” value is 7.51%. The value for `COC(=O)COc1cccc2c(=O)n(CC(=O)Nc3ccc4c(c3)OCCO4)ccc12` was 17.3%; that for `CCOC(=O)c1c(NC(=O)c2ccccc2N(C)S(=O)(=O)c2ccccc2)sc2c1CCCC2` was 6.96%.

For the compound `CCOc1ccc(CN(C)C(C)C(=O)NCc2ccccc2)cc1` (centres unmarked), the “hERG current change (%, negative = inhibition) at 10uM” value is on record as -54.8%. Consider `O=C(CSc1nnc2scc(-c3ccccc3)n12)c1ccc2c(c1)OCCO2`, for which the “hERG current change (%, negative = inhibition) at 10uM” value is given as 6.86%. The figure for `CC(=O)Oc1ccc(N(C(C)=O)S(=O)(=O)c2ccc(C)cc2)c2ccccc12` is -1.12%.

For the compound `COc1ccc(-c2[nH]ncc2[C@@H]2C[C@H]3CN(Cc4ccccc4C)C(=O)[C@]34CCCN24)cc1`, the “hERG current change (%, negative = inhibition) at 10uM” value is reported as -51.7%. The figure for `Cc1ccccc1CN1C(=O)CSc2ccc(C(=O)N3CCOCC3)cc21` is -4.17%; for `CCOC(=O)N1CCN(Cc2cccs2)CC1` it is 24.3%. On to `NC(=O)COc1ccc(NC(=O)OCc2ccccc2)cc1`, for which the “hERG current change (%, negative = inhibition) at 10uM” value is recorded as -0.303%.

Turning to `O=C(c1cccnc1)N1CCC(Oc2ccc(C(=O)N3CCCCO3)cc2)CC1`, the “hERG current change (%, negative = inhibition) at 10uM” value is 3.97%. On to `CC(=O)c1ccc(C(=O)N2CCCC(Nc3ccc(C(C)C)cc3)C2)s1` (centres unmarked), for which the “hERG current change (%, negative = inhibition) at 10uM” value is -7.8%.

For the compound `CCOC(=O)N1CCN(C(=O)C(=O)Nc2ccc3nc4n(c(=O)c3c2)CCCCC4)CC1`, the “hERG current change (%, negative = inhibition) at 10uM” value is recorded as 3.36%. The figure for `O=C(Cn1nc(-c2ccc(Cl)cc2)ccc1=O)NCCCN1CCN(Cc2ccccc2)CC1` is -64.2%; for `Cc1cc(C)n(CCNCc2c(C(=O)N3C[C@@H](C)O[C@@H](C)C3)nc3ccc(Cl)cn23)n1` it is 12.3%; for `O=C(Cn1c(=O)c2cccn2c2ccc(F)cc21)NCCCN1CCN(c2ccccc2F)CC1` it is -50.5%. In the case of `CCOC(=O)Cc1csc(NC(=O)CCCN2C(=O)c3ccccc3C2=O)n1`, the “hERG current change (%, negative = inhibition) at 10uM” value is 12.2%. The figure for `COC(=O)c1ccncc1N` is 12.4%; for `C=CCc1cccc2cc(C(=O)N3CCN(c4ccccn4)CC3)c(=O)oc12` it is -38.9%. `CCOC(=O)CSc1nc(=O)n2ccc(C)cc2n1`: the “hERG current change (%, negative = inhibition) at 10uM” value worked out at 12.1%. The value for `CCC(C)Sc1nnc(NC(=O)c2ccco2)s1` (centres unmarked) was 3.24%; that for `CC(C)Cn1c(-c2ccc(F)cc2)n[nH]c1=S` was 10.7%; that for `O=C(c1cnn2c(C(F)F)cc(-c3ccccc3)nc12)N1CCOCC1` was -10.4%. The figure for `COc1ccccc1CN1CCN(Cc2ccco2)CC1.O=C(O)C(=O)O` is -1.98%. The figure for `CCOC(=O)c1c(C)c(C(=O)NCc2cccs2)c(C)n1CC` is -3.39%. As for `COc1ccc(CNC(=O)CCCn2nc(C)n3ccnc3c2=O)cc1`, the “hERG current change (%, negative = inhibition) at 10uM” value is 8.86%. On to `CCOc1cc(/C=N/NC(=O)CN2CCOCC2)ccc1OCc1ccc(Cl)cc1`, for which the “hERG current change (%, negative = inhibition) at 10uM” value is listed as -14%. With `COC(=O)C1=C(c2cccc(OC)c2OC)C[C@@H]2CC[C@H]1N2C`, the “hERG current change (%, negative = inhibition) at 10uM” value is -6.68%. For `CCCc1[nH]nc2c1C(/C(C)=C/c1ccccc1)C(C#N)=C(N)O2` (centres unmarked), the “hERG current change (%, negative = inhibition) at 10uM” value was -3.25%. The value for `C/C(N)=C(/C#N)C(=O)COC(=O)C1Cc2ccccc2CN1S(C)(=O)=O` (centres unmarked) was 5.45%. As for `O=C(Cn1c(=O)oc2ccccc21)Nc1ccc(Cl)cc1`, the “hERG current change (%, negative = inhibition) at 10uM” value is on record as 16.7%.
